From US20090053212A1 come the findings set out here.

The target in this assay is thrombin-cleaved human osteopontin (human), P10451. Description: cell-based or functional assay.
Sequence of thrombin-cleaved human osteopontin (human), P10451 (P10451 17-314): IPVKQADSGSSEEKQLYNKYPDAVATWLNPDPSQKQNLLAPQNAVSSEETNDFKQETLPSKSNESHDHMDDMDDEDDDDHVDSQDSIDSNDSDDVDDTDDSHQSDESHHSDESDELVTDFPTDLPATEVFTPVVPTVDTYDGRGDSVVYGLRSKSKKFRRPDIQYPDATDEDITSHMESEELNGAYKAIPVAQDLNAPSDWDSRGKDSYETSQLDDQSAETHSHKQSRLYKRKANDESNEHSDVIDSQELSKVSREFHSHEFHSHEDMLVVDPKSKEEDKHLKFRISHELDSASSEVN

B1: R2K1v1.7 antibody (antibody, human IgG1, kappa)
heavy: QVQLQQSGAEVKKPGASVKVSCKALGYTFTDYEMHWVKQTPVHGLEWIGAIHPGRGGTAYNQKFKGKATLTADKSTSTAYMELSSLTSEDTAVYYCTRITGYFDVWGQGTTVTVSS[not shown - human IgG1 constant region]
light: DVVMTQSPLSLSVTLGQPASISCRSSQSIVHSNGNTYLEWYLQKPGQSPQLLIYKVSNRFSGVPDRFSGSGSGTDFTLKISRVEAEDVGVYYCFQGSHVPLTFGQGTKLEIKRTVAAPSVFIFPPSDEQLKSGTASVVCLLNNFYPREAKVQWKVDNALQSGNSQESVTEQDSKDSTYSLSSTLTLSKADYEKHKVYACEVTHQGLSSPVTKSFNRGEC
For the molecule B1, the Mean cell count (migration of TNF-alpha-activated human peripheral blood monocytes, 48-well microchemotaxis chamber; antibody 50 ug/mL) was 723 cells/mm^3.
